# From the supplement of paper PMC10037445
# Values joined by “and” are separate entries in the source; they are usually repeats but may differ in a detail not shown here. Equal values may be shown once. In all, about 2,900 compounds were measured (“IRF Lucia reporter activity, fold change vs agonist alone”: median about 0.9, highest 2% from about 2.8 on). This is one part of the list.
# Assays:
# RAW-Dual [1] = assay: IRF Lucia reporter activity, fold change vs agonist alone; cytotoxicity flag (confluency mask): cytotoxic (confluency <70% of control); higher = enhanced IRF activity
# In short: (§1)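 Reporter activity is given as fold change relative to agonist-alone wells. To measure it, 50 nL of library stock was pin-tooled onto RAW-Dual macrophages (50,000 cells/well, DMEM, 384-well plates), a PRR agonist followed 1 h later, and cells stayed at 37 °C, 5% CO2. Twenty hours on, supernatant was assayed for IRF (QuantiLuc luminescence) and NF-κB (QuantiBlue, 620 nm absorbance), and wells under 70% of agonist-control IncuCyte confluency in both mask sets were marked cytotoxic.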
# RAW-Dual [2] = assay: IRF Lucia reporter activity, fold change vs agonist alone; higher = enhanced IRF activity; conditions: library stock concentration (final ~1000-fold dilution): 10 mM, agonist: MPLA (TLR4) […]
# In short: as §1
# RAW-Dual [3] = assay: IRF Lucia reporter activity, fold change vs agonist alone; cytotoxicity flag (confluency mask): not cytotoxic; higher = enhanced IRF activity
# In short: as §1
# [4] = agonist: 3'3'-cGAMP (STING) 10 ug/mL
# [5] = cytotoxicity flag (confluency mask): not cytotoxic
smiles,measurement,setting,value
CCOC(=O)C1=C(COCCN)NC(C)=C(C(=O)OC)C1c1ccccc1Cl (centres undefined) (library stock concentration (final ~1000-fold dilution): 10 mM),IRF Lucia reporter activity,RAW-Dual [1]; [4],0.715 and 0.401
same,IRF Lucia reporter activity,RAW-Dual [1]; agonist: LPS (TLR4) 0.1 ug/mL,2.55 and 2.72
Oc1ccc(/C=C/c2cc(O)cc(O)c2)cc1,IRF Lucia reporter activity,RAW-Dual [2]; [5],0.727
Oc1ccc(/C=C/c2cc(O)cc(O)c2)cc1 (library stock concentration (final ~1000-fold dilution): 10 mM),IRF Lucia reporter activity,RAW-Dual [3]; [4],0.766
same,IRF Lucia reporter activity,RAW-Dual [3]; agonist: LPS (TLR4) 0.1 ug/mL,0.563
same,IRF Lucia reporter activity,RAW-Dual [1]; [4],0.119
same,IRF Lucia reporter activity,RAW-Dual [1]; agonist: LPS (TLR4) 0.1 ug/mL,0.446
Cc1ncc(CCCN(C)C)cc1Nc1ncc2c(n1)-c1ccc(C(F)(F)F)cc1NC(=S)C2,IRF Lucia reporter activity,RAW-Dual [2]; cytotoxicity flag (confluency mask): cytotoxic (confluency <70% of control),0.727
Cc1ncc(CCCN(C)C)cc1Nc1ncc2c(n1)-c1ccc(C(F)(F)F)cc1NC(=S)C2 (library stock concentration (final ~1000-fold dilution): 10 mM),IRF Lucia reporter activity,RAW-Dual [1]; [4],0.0789
same,IRF Lucia reporter activity,RAW-Dual [1]; agonist: LPS (TLR4) 0.1 ug/mL,0.56
COc1cc2c(cc1OC)C1Cc3ccc(OC)c(OC)c3CN1CC2 (centres undefined),IRF Lucia reporter activity,RAW-Dual [2]; [5],1.05
COc1cc2c(cc1OC)C1Cc3ccc(OC)c(OC)c3CN1CC2 (centres undefined) (library stock concentration (final ~1000-fold dilution): 10 mM),IRF Lucia reporter activity,RAW-Dual [3]; [4],0.933
same,IRF Lucia reporter activity,RAW-Dual [3]; agonist: LPS (TLR4) 0.1 ug/mL,0.84
COc1ccc(C2=NC(c3ccc(Cl)cc3)C(c3ccc(Cl)cc3)N2C(=O)N2CCNC(=O)C2)c(OC(C)C)c1 (centres undefined) (library stock concentration (final ~1000-fold dilution): 10 mM),IRF Lucia reporter activity,RAW-Dual [3]; [4],0.418 and 0.472
same,IRF Lucia reporter activity,RAW-Dual [3]; agonist: LPS (TLR4) 0.1 ug/mL,1.54 and 1.25
COc1ccc(C2=NC(c3ccc(Cl)cc3)C(c3ccc(Cl)cc3)N2C(=O)N2CCNC(=O)C2)c(OC(C)C)c1 (centres undefined),IRF Lucia reporter activity,RAW-Dual [2]; [5],1.45
CCN(CC)CCNC(=O)c1c(C)[nH]c(/C=C2\C(=O)Nc3ccc(F)cc32)c1C (library stock concentration (final ~1000-fold dilution): 10 mM),IRF Lucia reporter activity,RAW-Dual [1]; [4],0.0176
same,IRF Lucia reporter activity,RAW-Dual [1]; agonist: LPS (TLR4) 0.1 ug/mL,0.187
CCOc1cc2ncc(C#N)c(Nc3ccc(F)c(Cl)c3)c2cc1NC(=O)/C=C/CN(C)C (library stock concentration (final ~1000-fold dilution): 10 mM),IRF Lucia reporter activity,RAW-Dual [3]; [4],0.0535
same,IRF Lucia reporter activity,RAW-Dual [3]; agonist: LPS (TLR4) 0.1 ug/mL,0.0225
CCOc1cc2ncc(C#N)c(Nc3ccc(F)c(Cl)c3)c2cc1NC(=O)/C=C/CN(C)C,IRF Lucia reporter activity,RAW-Dual [2]; [5],0.0274
Cc1ncc(NC(=O)c2cccc(C(F)(F)F)c2)cc1-c1cnc(OC2CCOCC2)c(N2CCOCC2)c1 (library stock concentration (final ~1000-fold dilution): 10 mM),IRF Lucia reporter activity,RAW-Dual [3]; [4],0.811
same,IRF Lucia reporter activity,RAW-Dual [3]; agonist: LPS (TLR4) 0.1 ug/mL,0.615
O=c1c(-c2ccc(O)cc2)coc2cc(OC3OC(CO)C(O)C(O)C3O)ccc12 (centres undefined),IRF Lucia reporter activity,RAW-Dual [2]; [5],1.07
O=c1c(-c2ccc(O)cc2)coc2cc(OC3OC(CO)C(O)C(O)C3O)ccc12 (centres undefined) (library stock concentration (final ~1000-fold dilution): 10 mM),IRF Lucia reporter activity,RAW-Dual [3]; [4],1.03
same,IRF Lucia reporter activity,RAW-Dual [3]; agonist: LPS (TLR4) 0.1 ug/mL,1.03
Cc1cc(/C=C/C#N)cc(C)c1Nc1ccnc(Nc2ccc(C#N)cc2)n1 (library stock concentration (final ~1000-fold dilution): 10 mM),IRF Lucia reporter activity,RAW-Dual [3]; [4],0.03
same,IRF Lucia reporter activity,RAW-Dual [3]; agonist: LPS (TLR4) 0.1 ug/mL,0.489
Cc1cc(/C=C/C#N)cc(C)c1Nc1ccnc(Nc2ccc(C#N)cc2)n1,IRF Lucia reporter activity,RAW-Dual [2]; [5],0.64
COc1ccc(C(=O)NCc2ccc(OCCN(C)C)cc2)cc1OC.Cl,IRF Lucia reporter activity,RAW-Dual [2]; [5],1
COc1ccc(C(=O)NCc2ccc(OCCN(C)C)cc2)cc1OC.Cl (library stock concentration (final ~1000-fold dilution): 10 mM),IRF Lucia reporter activity,RAW-Dual [3]; [4],0.999
same,IRF Lucia reporter activity,RAW-Dual [3]; agonist: LPS (TLR4) 0.1 ug/mL,1.32
Cc1cc(=O)[nH]c(=S)[nH]1 (library stock concentration (final ~1000-fold dilution): 10 mM),IRF Lucia reporter activity,RAW-Dual [3]; [4],0.86
same,IRF Lucia reporter activity,RAW-Dual [3]; agonist: LPS (TLR4) 0.1 ug/mL,1.1
O=S(=O)(NCCSSCCNS(=O)(=O)c1cc(Cl)ccc1Cl)c1cc(Cl)ccc1Cl (library stock concentration (final ~1000-fold dilution): 10 mM),IRF Lucia reporter activity,RAW-Dual [3]; [4],0.0387
same,IRF Lucia reporter activity,RAW-Dual [3]; agonist: LPS (TLR4) 0.1 ug/mL,0.385
O.O=c1c(O)c(-c2ccc(O)cc2O)oc2cc(O)cc(O)c12 (library stock concentration (final ~1000-fold dilution): 10 mM),IRF Lucia reporter activity,RAW-Dual [3]; [4],0.868
same,IRF Lucia reporter activity,RAW-Dual [3]; agonist: LPS (TLR4) 0.1 ug/mL,0.795
O.O=c1c(O)c(-c2ccc(O)cc2O)oc2cc(O)cc(O)c12,IRF Lucia reporter activity,RAW-Dual [2]; [5],0.967
O=C1N=C(O)CN1N=Cc1ccc(-c2ccc([N+](=O)[O-])cc2)o1,IRF Lucia reporter activity,RAW-Dual [2]; [5],0.99
O=C1N=C(O)CN1N=Cc1ccc(-c2ccc([N+](=O)[O-])cc2)o1 (library stock concentration (final ~1000-fold dilution): 10 mM),IRF Lucia reporter activity,RAW-Dual [3]; [4],0.998
same,IRF Lucia reporter activity,RAW-Dual [3]; agonist: LPS (TLR4) 0.1 ug/mL,1.07
COCCNCc1ccc(-c2cc3nccc(Oc4ccc(NC(=O)C5(C(=O)Nc6ccc(F)cc6)CC5)cc4F)c3s2)nc1 (library stock concentration (final ~1000-fold dilution): 10 mM),IRF Lucia reporter activity,RAW-Dual [3]; [4],0.0586
same,IRF Lucia reporter activity,RAW-Dual [3]; agonist: LPS (TLR4) 0.1 ug/mL,0.115
